Hit rate of the full screen: of about 390,000 compounds, about 2,200 (0.56%) were called active. Inconclusive means that the source gave no clear call. Such entries were picked first, then a sample of the others. The call rests on the fitted dose curve; in most records, active means well fitted inhibition curve with a large enough effect; inconclusive means small, poorly fitted or top-dose-only effect; inactive means no such curve, though single readings can be large or run the other way. A potency beside an inconclusive call is a rough fit, not a confirmed value.
target: Chromobox protein homolog 1 (Homo sapiens) (UniProt P83916); assay: HTS for Inhibitors of HP1-beta Chromodomain Interactions with Methylated Histone Tails; conditions: AlphaScreen HP1-beta / biotin-H3K9me3 peptide binding; series mostly up to 114 µM; activity change, negative = inhibition: at the top concentration; further: nearly all actives have a fitted effect of over 70% in size
Chain of UniProt P83916 (P83916 whole entry, looked up): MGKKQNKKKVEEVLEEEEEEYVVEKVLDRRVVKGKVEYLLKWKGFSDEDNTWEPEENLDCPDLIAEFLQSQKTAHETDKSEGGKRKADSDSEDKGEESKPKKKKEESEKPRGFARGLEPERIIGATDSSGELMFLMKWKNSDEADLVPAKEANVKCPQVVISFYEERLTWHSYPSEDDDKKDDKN
Method in brief: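 AlphaScreen: HP1-beta (50 nM) preformed 30 min with biotin-H3(1-18)K9me3 peptide (50 nM) in PBS pH 7.4, 0.01% Tween-20. Compound added for 30 min at RT, then streptavidin donor/nickel chelate acceptor beads (10 ug/mL) for 30 min.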
Potency means the concentration at half of the fitted maximal effect; tags describe the fitted curve by direction and shape.

| SMILES | Potency | activity change, negative = inhibition |
| --- | --- | --- |
| NC(=O)CC(NC(=O)Cc1cccc2ccccc12)c1ccc(N2CCC(Br)CC2)c([N+](=O)[O-])c1 (configuration not stated) | inconclusive: 79.4 µM [inhibitor, single point] |  |
| CCN(CC)c1ccc(NC(=O)c2ccc(Br)o2)c(C)c1 | inconclusive: 50.1 µM [inhibitor, partial curve] |  |
| CCOc1ccc(S(=O)(=O)N2CCOCC2)cc1NC(=O)C1=COCCO1 |  | inactive: 14.5% |
| CC1CCN(C(=O)c2ccc(-c3ccccc3Cl)o2)CC1 | inconclusive: 56.2 µM [inhibitor, partial curve, poor fit] |  |
| O=C(Nc1ccccc1)c1ccc(Br)o1 |  | inactive: 8.07% |
| O=C1/C(=C/c2ccc([N+](=O)[O-])cc2)C=C(c2ccccc2)N1c1ccccc1 |  | inactive: -4.87% |
| O=C(COc1ccc(Cl)cc1Cl)NNC(=S)NC(=O)c1ccco1 | inconclusive: 11.2 µM [inhibitor, full curve] |  |
| CCOc1ccccc1OCCCOc1ccc(C)cc1Br |  | inactive: 230% |
| O=C(C1CCN(Cc2cccs2)CC1)N1CCN(Cc2ccc3c(c2)OCO3)CC1 | inconclusive: 15.8 µM [inhibitor, full curve, poor fit] |  |
| CS(=O)(=O)c1ccc(CNC(=O)C2(C(F)(F)F)C/C(=C\Cc3ccccc3)CCCO2)cc1 (configuration not stated) | inactive |  |
| COc1ccc2nc(NC(=O)c3cccc(-c4cc5ccccc5oc4=O)c3)sc2c1 |  | inactive: 7.3% |
| COC(=O)c1ccc(NC(=O)CNCc2ccncc2)cc1 | inconclusive: 35.5 µM [inhibitor, partial curve, poor fit] |  |
| CCCOC(=O)CSC1=C(C#N)C(c2ccccc2OCC)C(C#N)C(=O)N1 (configuration not stated) | inconclusive: 8.91 µM [inhibitor, partial curve, poor fit] |  |
| CCn1c(SCC(=O)Nc2oc(-c3ccccc3)c(-c3ccccc3)c2C#N)nnc1-c1ccco1 |  | inactive: -11.6% |
| COc1ccc(Cl)cc1NC(=O)NCc1cccnc1 |  | inactive: 31.7% |
| CC(=O)O[C@H]1[C@@H](O)[C@H](O)[C@H](Oc2c(O)c(C)c3c4c2[C@@H](C)CC[C@@H]4[C@@H](C)C[C@H]3C=C(C)C)O[C@H]1C | inconclusive: 22.4 µM [inhibitor, partial curve, poor fit] |  |
| COc1ccc(-n2c(C)cc(C(=O)CSc3nnc(-c4ccoc4C)n3C)c2C)cc1 | inconclusive: 56.2 µM [inhibitor, partial curve] |  |
| O=C(c1ccc(CSc2nc3ccncc3[nH]2)cc1)N1CCCCC1 | inconclusive: 15.8 µM [inhibitor, full curve, poor fit] |  |
| CCN(c1ccccc1)S(=O)(=O)c1ccc(Cl)c(NC(=O)CNCc2ccccc2OC)c1 | inconclusive: 15.8 µM [inhibitor, partial curve, poor fit] |  |
| CC(/C=C/c1ccccc1)=N\Nc1ccccc1[N+](=O)[O-] | active: 3.98 µM |  |
| COc1ccc2nc(NN=C(C)c3ccccn3)cc(C)c2c1 | inconclusive: 70.8 µM [inhibitor, partial curve] |  |
| COc1ccc(N(CC(=O)N2CCN(C)CC2)S(=O)(=O)c2ccccc2)cc1 |  | inactive: 14.7% |
| O=C(CN1CCN(C2CCCCC2)CC1)NCCC1=CCCCC1 | inconclusive: 56.2 µM [inhibitor, partial curve] |  |

| SMILES | Potency | activity change, negative = inhibition |
| --- | --- | --- |
| COc1cc(/C=C2\C(=N)N3N=C(S(C)(=O)=O)SC3=NC2=O)cc(OC)c1OCCOc1ccccc1C | inconclusive: 70.8 µM [inhibitor, partial curve] |  |
| O=C(NCn1ccc(=O)[nH]c1=S)c1ccccc1 |  | inactive: -13.7% |
| O=C(NC1CCSc2ccccc21)c1ccccc1F (configuration not stated) |  | inactive: 44.6% |
| COc1cc(C(=O)Nc2nnc(C(C)(C)C)s2)c([N+](=O)[O-])cc1OC | inconclusive: 28.2 µM [inhibitor, single point] |  |
| Cc1nn(C)c(C(=O)N/N=C/c2ccc(C(F)(F)F)cc2)c1[N+](=O)[O-] |  | inactive: 3.97% |
| CC(Nc1cccc2ccccc12)C(=O)N/N=C/c1ccc([N+](=O)[O-])cc1 (configuration not stated) | inconclusive: 50.1 µM [inhibitor, partial curve] |  |
| Cn1c(=O)[nH]c(=O)c2c1[nH]c(=S)n2Cc1ccccc1 | inconclusive: 17.8 µM [inhibitor, full curve] |  |
| COCCCNCCC(CCC(C)C)c1ccc2c(c1)OCO2 (configuration not stated) | inconclusive: 56.2 µM [inhibitor, single point] |  |
| O=C(O)C(C(=O)/C=C/c1ccco1)=C1SCCS1 | active: 70.8 µM |  |
| CC(NCC1(N2CCOCC2)CCCCC1)C(=O)N1CCc2ccccc21 (configuration not stated) | inconclusive: 11.2 µM [inhibitor, partial curve, poor fit] |  |
| COc1ccc(N2CCN(CCCNC(=O)C(=O)c3c(C)[nH]c4ccccc34)CC2)cc1 | inconclusive: 31.6 µM [inhibitor, partial curve] |  |
| CSc1ccc(CN(C)CC(=O)Nc2c(F)cccc2F)cc1 | inconclusive: 17.8 µM [inhibitor, partial curve, poor fit] |  |
| CC(=O)NC1=CC(=O)c2nonc2C1=O |  | inactive: -7.67% [at 57 µM] |
| O=C(O)c1ccccc1Nc1ccc([N+](=O)[O-])c2nonc12 | inconclusive: 50.1 µM [inhibitor, partial curve] |  |
| Cc1ccc2c(c1)C(c1ccc(F)cc1)N(C(=O)c1ccc(OC(C)C)cc1)CC(=O)N2 (configuration not stated) |  | inactive: 34.2% |
| Cc1cccc(N2CCN(C(=O)CCS(=O)(=O)c3ccc(Br)cc3)CC2C)c1 (configuration not stated) | active: 28.2 µM |  |
| COc1ccccc1N1CCN(C(=O)CN2C(=O)COc3ccc(S(=O)(=O)N4CCC(C)CC4)cc32)CC1 |  | inactive: 16.5% |
| CCOc1cc(CN2CCN(C(=O)c3cccc4ccccc34)CC2)ccc1OC | inconclusive: 15.8 µM [inhibitor, full curve] |  |
| CCOC(=O)c1c(C)nc2ccccc2c1C |  | inactive: 16.5% |
| CCc1ccc(S(=O)(=O)N2CCCC(N3CCN(c4ccc(OC)cc4)CC3)C2)cc1 (configuration not stated) | inconclusive: 50.1 µM [inhibitor, partial curve] |  |
| CCOc1ccc(C2C(C(=O)OC)=C(C)NC3=C2C(=O)c2ccccc23)cc1OC (configuration not stated) | inconclusive: 20 µM [inhibitor, full curve] |  |
| CCC(C)NCCOCCOc1ccc(C)cc1Br (configuration not stated) | inconclusive: 56.2 µM [inhibitor, single point] |  |
| COc1ccc(Nc2ncnc3c2c(-c2ccccc2)cn3-c2ccc(C)c(Cl)c2)cc1OC | inconclusive: 50.1 µM [inhibitor, partial curve, poor fit] |  |

| SMILES | Potency | activity change, negative = inhibition |
| --- | --- | --- |
| CCCCn1c(N)c(N(CC(C)C)C(=O)c2ccc(C)o2)c(=O)[nH]c1=O |  | inactive: 15% |
| COc1cccc(CN2CCC(n3nccc3NC(=O)CCCc3ccccc3)CC2)c1 |  | inactive: 33.2% |
| Cc1ccc(NC(=O)c2cncc(Br)c2)cc1S(=O)(=O)N(C)C | inconclusive: 39.8 µM [inhibitor, single point] |  |
| C/C(=N\Nc1ccc(F)cc1F)c1ccc(Br)s1 | inconclusive: 79.4 µM [inhibitor, single point] |  |
| Cc1ccccc1Cc1n[nH]c(=S)n1N | inconclusive: 89.1 µM [inhibitor, single point] |  |
| Cc1cc(C)c2cc(C#N)c(N3CCCC3)nc2c1 |  | inactive: 83.6% |
| CCN1CCN(CCOc2ccccc2-c2ccccc2)CC1 | inconclusive: 15.8 µM [inhibitor, full curve, poor fit] |  |
| Oc1ccc(N2CCN(Cc3cc4c(cc3Br)OCCO4)CC2)cc1 | inconclusive: 50.1 µM [inhibitor, partial curve, poor fit] |  |
| CCN(c1ccccc1)S(=O)(=O)c1ccc(Cl)c(NC(=O)CN(C)C2CCN(C)CC2)c1 | inconclusive: 14.1 µM [inhibitor, partial curve, poor fit] |  |
| O=C(COC(=O)c1ccc(-c2ccc([N+](=O)[O-])cc2)o1)NC(=O)NC12CC3CC(CC(C3)C1)C2 | inconclusive: 39.8 µM [inhibitor, single point] |  |
| Clc1ccccc1CSc1nnc(-c2ccco2)c(-c2ccco2)n1 | active: 20 µM |  |
| CC1CCN(c2ccc(C(=O)Nc3ccc4c(c3)OCO4)cc2[N+](=O)[O-])CC1 | inconclusive: 15.8 µM [inhibitor, full curve] |  |
| CC1=NN(c2ccccc2)C(=O)/C1=C/c1c(O)n(-c2ccc(F)cc2)[nH]c1=O | inconclusive: 50.1 µM [inhibitor, partial curve] |  |
| CCc1ccc(C(c2ccccc2)c2c[nH]c3ccc(C)cc23)s1 (configuration not stated) | inconclusive: 17.8 µM [inhibitor, full curve] |  |
| O=[N+]([O-])c1cc2oc3c(c2c(C=NCc2ccncc2)c1O)CCCC3 | inconclusive: 56.2 µM [inhibitor, single point] |  |
| COc1ccc(-c2csc(N3CCN(Cc4ccc5c(c4)OCO5)CC3)n2)cc1 | inconclusive: 39.8 µM [inhibitor, single point] |  |
| O=C(/C=C\c1ccc(-c2ccccc2)o1)c1ccccc1 | inconclusive: 17.8 µM [inhibitor, full curve, poor fit] |  |
| COc1ccc(S(=O)(=O)Nc2cccc3c2O[C@H](CN(C)C(=O)NC2CCCCC2)[C@@H](C)CN([C@H](C)CO)C3=O)cc1 |  | inactive: 33.2% |
| Oc1c(C(c2ccccc2)N2CCN(c3cccc(Cl)c3)CC2)sc2nc(-c3ccco3)nn12 (configuration not stated) | inconclusive: 35.5 µM [inhibitor, partial curve, poor fit] |  |
| COc1cc(/C=C(/C(=O)c2cccs2)c2nc3ccccc3[nH]2)cc(OC)c1O | inconclusive: 25.1 µM [inhibitor, single point] |  |
| C/C(=N\NC(=O)c1cc(O)ccc1O)c1cccc(NC(=O)c2ccc(Cl)cc2)c1 | inconclusive: 50.1 µM [inhibitor, single point] |  |

— PubChem BioAssay AID540317 (National Center for Advancing Translational Sciences (NCATS), 2011)
